# Measured values taken from the BET-seq Pho4 binding data (Le et al. 2018).
# The list shows a part of the results. The energies were worked out here from pooled read counts, against the library average; single values are noisy.
# Target: T1, Pho4 (S. cerevisiae) (UniProt P07270)
# T1 sequence: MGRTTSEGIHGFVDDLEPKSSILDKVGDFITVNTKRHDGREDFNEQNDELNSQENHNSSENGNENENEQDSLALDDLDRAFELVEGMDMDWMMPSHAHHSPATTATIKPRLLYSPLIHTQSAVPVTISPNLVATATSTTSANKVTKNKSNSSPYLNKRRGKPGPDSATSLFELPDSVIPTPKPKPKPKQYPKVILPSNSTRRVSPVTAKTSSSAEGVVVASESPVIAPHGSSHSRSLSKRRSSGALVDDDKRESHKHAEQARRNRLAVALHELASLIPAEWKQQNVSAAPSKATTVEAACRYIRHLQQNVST
# Assay: relative binding free energy (BET-seq); higher = weaker binding
# Conditions: reference: library average
row,Sequence,relative binding free energy
1,CTAGTCACGTGGCGGG,0.07 kcal/mol
2,ATATTCACGTGTAGGC,0.19 kcal/mol
3,ATTTTCACGTGCGGGA,0.29 kcal/mol
4,GTGGGCACGTGGTTGG,-0.01 kcal/mol
5,AGGGGCACGTGAAAGC,0.05 kcal/mol
6,TGCTTCACGTGGTGGG,0.18 kcal/mol
7,TGACTCACGTGGTGTA,0.12 kcal/mol
8,TTTTGCACGTGGCATA,-0.13 kcal/mol
9,TGTGACACGTGGCCGT,-0.1 kcal/mol
10,TGATGCACGTGTGTTT,0.13 kcal/mol
11,ACTGTCACGTGGGGAT,-0.17 kcal/mol
12,ATACTCACGTGGGCTT,0.12 kcal/mol
13,GGGGACACGTGGTGGT,-0.01 kcal/mol
14,GGTTTCACGTGGTTTG,0.27 kcal/mol
15,TTGATCACGTGATGAG,0.16 kcal/mol
16,TTACGCACGTGTTTGT,-0.11 kcal/mol
17,AATTCCACGTGGGGTA,-0.06 kcal/mol
18,TGTATCACGTGGTTGC,0.07 kcal/mol
19,TCCGTCACGTGGGGGC,-0.06 kcal/mol
20,TAGGGCACGTGCATTG,-0.13 kcal/mol
21,AGTTGCACGTGAACGG,0.01 kcal/mol
22,GGATGCACGTGGTGTG,-0.08 kcal/mol
23,ATTGTCACGTGGGAGC,-0.05 kcal/mol

row,Sequence,relative binding free energy
1,TGGCCCACGTGGTGTG,-0.17 kcal/mol
2,CATCGCACGTGGTGTT,-0.26 kcal/mol
3,TGGTTCACGTGCTAGA,0.3 kcal/mol
4,AAAAGCACGTGGGGCT,-0.16 kcal/mol
5,TACTTCACGTGTGTCT,0.29 kcal/mol
6,ACTTACACGTGTGGGG,0.22 kcal/mol
7,TTTTCCACGTGGGTCT,-0.05 kcal/mol
8,GATAACACGTGTTGTT,0.01 kcal/mol
9,GGATTCACGTGGTCAT,0.25 kcal/mol
10,TGGTGCACGTGTGGGG,0.09 kcal/mol
11,ATGGACACGTGTGGCT,-0.09 kcal/mol
12,TATGCCACGTGTTGAT,0.01 kcal/mol
13,TGGAGCACGTGGTGAT,0.01 kcal/mol
14,TGTTGCACGTGCTTCG,0.01 kcal/mol
15,CTCTACACGTGTGGGT,0.19 kcal/mol
16,ATGAGCACGTGGGGAA,-0.2 kcal/mol
17,TTTATCACGTGGGAAC,0.28 kcal/mol
18,AAGGTCACGTGTTTGA,0.14 kcal/mol
19,CGTGTCACGTGTTCTT,0.01 kcal/mol
20,CATGGCACGTGGTGTT,-0.14 kcal/mol
21,GCAATCACGTGATGGG,0.21 kcal/mol
22,TAGCGCACGTGGATAG,-0.04 kcal/mol
23,TCGTTCACGTGTTGGA,0.33 kcal/mol

row,Sequence,relative binding free energy
1,GTAGGCACGTGTGCAG,-0.09 kcal/mol
2,TAAGGCACGTGGTTTA,-0.13 kcal/mol
3,TAGAGCACGTGTAGGT,-0.14 kcal/mol
4,GTAATCACGTGTGGCT,0.23 kcal/mol
5,TGCAGCACGTGGTTGT,-0.16 kcal/mol
6,ATTTCCACGTGGGAGT,0.09 kcal/mol
7,ACGGTCACGTGTGTTT,0.09 kcal/mol
8,GGTGTCACGTGTTGGA,0.19 kcal/mol
9,GTGGGCACGTGTAGAA,0.06 kcal/mol
10,TAAGGCACGTGTATAT,-0.11 kcal/mol
11,CGCTTCACGTGGGTGG,0.02 kcal/mol
12,TTTCTCACGTGTTGGT,0.2 kcal/mol
13,CGTGACACGTGAGAGT,0.22 kcal/mol
14,CGGTGCACGTGGCATG,-0.13 kcal/mol
15,TTGGTCACGTGTGCTC,0.16 kcal/mol
16,TTAAACACGTGTTATG,0.1 kcal/mol
17,TTCTACACGTGATGTA,0.2 kcal/mol
18,ATATGCACGTGAAAGG,0.24 kcal/mol
19,ATTGGCACGTGTTATT,-0.06 kcal/mol
20,TCTGGCACGTGATGTG,0.07 kcal/mol
21,TGGTACACGTGAGGGT,0.27 kcal/mol
22,ATATACACGTGTTCGG,-0.03 kcal/mol
23,GTCGTCACGTGATGGT,0.35 kcal/mol

row,Sequence,relative binding free energy
1,ATTGGCACGTGCTGGC,-0.18 kcal/mol
2,GTTGCCACGTGCGTTG,-0.18 kcal/mol
3,TAAATCACGTGGTATA,0.1 kcal/mol
4,ATTGTCACGTGTTGGT,0.13 kcal/mol
5,GGGTTCACGTGTCGGG,0.46 kcal/mol
6,CGTGGCACGTGTATGC,-0.03 kcal/mol
7,TGCATCACGTGGGGTG,0 kcal/mol
8,ATGGGCACGTGGCTGG,-0.12 kcal/mol
9,TGGTTCACGTGCTAAA,0.34 kcal/mol
10,AGGGGCACGTGGAGTA,-0.15 kcal/mol
11,TCGAGCACGTGGGCGG,-0.15 kcal/mol
12,TGGGCCACGTGGCAGG,-0.22 kcal/mol
13,CTGAGCACGTGGTTGA,-0.17 kcal/mol
14,CTTGACACGTGGGTGT,-0.14 kcal/mol
15,AAAGGCACGTGTATGG,-0.1 kcal/mol
16,TCCGGCACGTGGGTGA,-0.2 kcal/mol
17,TTTGCCACGTGTGGAA,0.1 kcal/mol
18,AGTCTCACGTGGTATT,0.25 kcal/mol
19,GTCCTCACGTGGATGG,0.31 kcal/mol
20,AGGTGCACGTGCTTTA,-0.09 kcal/mol
21,AAGGGCACGTGGAGGT,-0.22 kcal/mol
22,AGGGGCACGTGGGAAT,-0.07 kcal/mol
23,GGTTACACGTGTGGGG,0.18 kcal/mol

row,Sequence,relative binding free energy
1,GAGTTCACGTGCGTAT,0.33 kcal/mol
2,AGCGGCACGTGGGCAA,-0.18 kcal/mol
3,CTTTTCACGTGTGGGT,0.27 kcal/mol
4,GGGGGCACGTGGCGTG,-0.13 kcal/mol
5,TGGGGCACGTGGGGCA,-0.23 kcal/mol
6,GTGGACACGTGGTTCG,0.07 kcal/mol
7,AAACGCACGTGGTTGT,-0.2 kcal/mol
8,CGGTTCACGTGGGGGC,0.24 kcal/mol
9,TGTAGCACGTGATGAT,0.2 kcal/mol
10,TGTATCACGTGTGTTC,0.17 kcal/mol
11,GGAATCACGTGTGTGG,0.16 kcal/mol
12,TTCGGCACGTGTTGCG,-0.07 kcal/mol
13,TGACTCACGTGTGGTT,0.18 kcal/mol
14,TTTAGCACGTGTAGGG,-0.01 kcal/mol
15,TAATTCACGTGGGGGA,0.08 kcal/mol
16,TTAAACACGTGGGCAT,-0.03 kcal/mol
17,ATGCGCACGTGTTGGG,-0.13 kcal/mol
18,GTTATCACGTGTACAT,0.22 kcal/mol
19,GAGGTCACGTGGCGGG,0.23 kcal/mol
20,ATGAACACGTGTGAGG,0.11 kcal/mol
21,AGTGCCACGTGTGTAG,-0.24 kcal/mol
22,TGAATCACGTGTACTT,0.18 kcal/mol
23,GATGACACGTGGTGAT,0.12 kcal/mol
